The RNAGym collection of RNA variant scans (doi:10.1073/pnas.2313332121)
Variants at the background level are over-represented here.

B1: TPR 5TU (parent)
chain: GGAUCUUCUCGAUCUAACAAAAAAGACAAAUCUGCCACAAAGCUUGAGAGCAUCUUCGGAUGCAGAGGCGGCAGCCUUCGGUGGCGCGAUAGCGCCAACGUUCUCAACUAUGACACGCAAAACGCGUGCUCCGUUGAAUGGAGUUUAUCAUG

Variants of: B1
Assay: polymerase ribozyme fitness, log enrichment relative to wild type (log ratio); higher = more active; in vitro selection for triplet polymerase activity
Procedure, shortened: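 Libraries of mutants in each subunit of a heterodimeric triplet polymerase ribozyme were generated by PCR and transcribed. In triplicate, each went through one in vitro selection round: annealing with biotinylated primer, partner subunit and triplets; frozen incubation at −7 °C; gel excision of extended constructs; streptavidin-bead capture; RT-PCR. Fitness, taken from Illumina sequencing of input and output libraries, is the logarithm of a genotype's enrichment over wild-type enrichment, averaged across replicates with inverse-variance weights. The logarithm is base 2, and genotypes needed ≥10 input reads and ≥1 read per output to be kept.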

Polymerase ribozyme fitness (log ratio), -4.15:
C43G C95U C96A

Polymerase ribozyme fitness (log ratio), -4.18:
C43G C57A A60U G141C

Polymerase ribozyme fitness (log ratio), ≤ -4.2:
G42C U139G
G42C U148A
G42U A47C C93U A97G C118U
G42U A47C G94A U102C A107C A115U
G42U A47C U135A
G42U A52C A60C C85A C105U A107G
G42U A52C A73U G83A
G42U A52G G94U U102G
G42U A64C C79U G88A A106G A107C A147U
G42U A73G C96U G124C U151A
G42U C51A A52C C63A G74C C76A C79G C87G C93U A113C
G42U C51A U56A C79G
G42U C54U A66G C85U A91G C96A A107G
G42U C72U A73U G94A
G42U C72U G80C G84C C108U
G42U C75U U77G U78G C85U C93U C116U G140C
G42U C79G C93U
G42U C87A C118G
G42U C93G C96A
G42U G48C A66U C85A C132G
G42U G48C G71A U77C A97C
G42U G50A C118U A122C
G42U G50A G74U C95U
G42U G59A A60G U90C U111G A150G
G42U G62A U102G C123A A137U G140C
G42U G65A G67C G71A C96A A110G
G42U G70C C87A A89U
G42U G74C C96U A121G
G42U G80A C96A C103U
G42U G80A U104C
G42U U44A C57G U82G C87A A113G U135A
G42U U44A C93U U109G G152U
G42U U44A G83C C105G A106C U109G C132G
G42U U44C A91U A107G A142U
G42U U55C C116G
G42U U55G C85U G128U U146G
G42U U55G G80A U90C A97U G143C
G42U U78G
G42U U90C A106U A107C
G42U U102G A120G
C43A A47C
C43A A47C U102A C105U A113C C125G C132A
C43A A52C C85U G124A
C43A A52U U56A G83C C93A G143C G152U
C43A A60G U146A
C43A A60U C76A C85G C125U A138G
C43A A64G G67A U109G A147G
C43A C54G U56G G58A
C43A C57A C85G G100U A147C
C43A C76G C95G U144C
C43A C76U C95U
C43A C85A
C43A C85U A91C C95U G140C
C43A C85U G124A G133U U151A
C43A C87A A89G C93U
C43A C87A C105U A115G
C43A C95A G141U U145G
C43A C95U C118U U130G
C43A C96G C108U
C43A C118A U127G
C43A G58A A60U G86U C114G
C43A G58C
C43A G58C C99G C118G
C43A G58C G81C C95U C96A A122U G126C A142C
C43A G59U G68U G92U U134A
C43A G59U G100A G133C A147U
C43A G62C G84C A89G C118G C149A
C43A G68C G80C A138C
C43A G86A U102A U104C C116U
C43A G92C A115C G141C
C43A G94A C125U
C43A U44A U55G C93G C114A C132U
C43A U53A G84A C114U
C43A U55G C76G G84A C131U
C43A U56A G84A A91U G126A A150G
C43A U61A C85U A106C G126U U148G
C43A U61G G62A G84A C85U
C43A U61G G62A U90G C96U C116G C125U
C43A U77C C87A G88U A106U
C43A U144G
C43G A47U G74A C93A
C43G A49C C51U G62A G88A A91G C125U A137G
C43G A49C G68C C72U A97U
C43G A49C U61C G65C C76A C103G A106C
C43G A52U
C43G A52U C75G G81A C87G
C43G A89U C93A
C43G A91G G124A
C43G C54G A91C G133C U139G
C43G C54U G62C G84A A97G
C43G C54U G84A C108U G112C
C43G C57U G71A U82G C93G C95U
C43G C75A G84A G94U G136A
C43G C75U G83U U102G
C43G C85U C95G C96A G100A
C43G C95A C96A A121G A142G G152U
C43G C96U C116G A142C
C43G C118A
C43G G58C A138U G141U
C43G G59A C93A U151C
C43G G83C U144C
C43G G84U G92U U134G
C43G U44A G58A G88U C95U U135G
C43G U45C U53A G59A G83A G136C
C43G U55A C96A A98C A121U
C43G U56A
C43G U56A G112A U134C
C43G U77A G80A G92A A106C
C43U A47C U56A U78G C87G
C43U A49U U55A G92C
C43U A52C G67A U78C C93A A107G A142C
C43U A52C U53A G92A C118U
C43U A52G C57U A60C C105A C114U A138G
C43U A60C C63U A64G A66C A91C A110C
C43U A60G U61G G86A U134G
C43U A64U G92U A107C U139G
C43U A73G C96U A119U C125G G136A
C43U A73U G86A U90A
C43U A89U G94U C105G C132A U151C
C43U A150U
C43U C54A U77G G83C A106G
C43U C54G G74C C79G
C43U C54G G74U G88U A89U G100U A121U
C43U C57A C85G A106C
C43U C57A G80C C95A A122U
C43U C57U C93G U104A A142G
C43U C72U U134G U139C
C43U C75G C87G
C43U C75G G80U C123U C131U
C43U C76A C95U
C43U C79A G84U C95A G133U U135G U151A
C43U C85A C96U U146A
C43U C85G A150G
C43U C87A C116U C131G
C43U C93G
C43U C93G C118U U148G
C43U C93G U109G
C43U C96U G126A A147U U151G
C43U C103G A122C
C43U G46A G74U
C43U G46A U90C C95U A106U
C43U G46C C54U C72U C79U C87A G92C C103U G140U U145G
C43U G50C A60U G84A G117U A137G A138U
C43U G50C C85A C87G C95U G128U U146A
C43U G59C G67A C75A G86U
C43U G65C A73U A142C U146G
C43U G67A G86U C93U A142C
C43U G74C C93G U146A
C43U G80C C95U
C43U G83U A120G
C43U G84U
C43U G84U C105U
C43U G84U U134C A142U
C43U G86U C93U C99G C103G C129G
C43U G86U C108G
C43U G94A G126U
C43U G100C
C43U G126C U134C G141U
C43U U44A G58A G68C C93A U109C
C43U U45A G48C C54U C87U U102G
C43U U45A G68A C79A G94A C123U
C43U U45C A60C A66C A91C
C43U U45G G59A U139A A142G
C43U U45G G133U U134C
C43U U53G
